# Assay results as given in paper PMC4336329 (PLoS ONE, 2015).
# Among all 310,000 compounds or so, about 14,000 (4.5%) showed an effect of 50% or more. Effects have a minus sign here. This is one part of the list.
# Target: human ether-à-go-go-related gene (hERG) potassium channel (human, UniProt Q12809)
# Assay: primary screen, population patch clamp on CHO cells stably expressing hERG
# 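Further: peak tail current of the secondary pulse compared with the same well before compound.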
# Sequence of human ether-à-go-go-related gene (hERG) potassium channel (Q12809 whole entry, looked up): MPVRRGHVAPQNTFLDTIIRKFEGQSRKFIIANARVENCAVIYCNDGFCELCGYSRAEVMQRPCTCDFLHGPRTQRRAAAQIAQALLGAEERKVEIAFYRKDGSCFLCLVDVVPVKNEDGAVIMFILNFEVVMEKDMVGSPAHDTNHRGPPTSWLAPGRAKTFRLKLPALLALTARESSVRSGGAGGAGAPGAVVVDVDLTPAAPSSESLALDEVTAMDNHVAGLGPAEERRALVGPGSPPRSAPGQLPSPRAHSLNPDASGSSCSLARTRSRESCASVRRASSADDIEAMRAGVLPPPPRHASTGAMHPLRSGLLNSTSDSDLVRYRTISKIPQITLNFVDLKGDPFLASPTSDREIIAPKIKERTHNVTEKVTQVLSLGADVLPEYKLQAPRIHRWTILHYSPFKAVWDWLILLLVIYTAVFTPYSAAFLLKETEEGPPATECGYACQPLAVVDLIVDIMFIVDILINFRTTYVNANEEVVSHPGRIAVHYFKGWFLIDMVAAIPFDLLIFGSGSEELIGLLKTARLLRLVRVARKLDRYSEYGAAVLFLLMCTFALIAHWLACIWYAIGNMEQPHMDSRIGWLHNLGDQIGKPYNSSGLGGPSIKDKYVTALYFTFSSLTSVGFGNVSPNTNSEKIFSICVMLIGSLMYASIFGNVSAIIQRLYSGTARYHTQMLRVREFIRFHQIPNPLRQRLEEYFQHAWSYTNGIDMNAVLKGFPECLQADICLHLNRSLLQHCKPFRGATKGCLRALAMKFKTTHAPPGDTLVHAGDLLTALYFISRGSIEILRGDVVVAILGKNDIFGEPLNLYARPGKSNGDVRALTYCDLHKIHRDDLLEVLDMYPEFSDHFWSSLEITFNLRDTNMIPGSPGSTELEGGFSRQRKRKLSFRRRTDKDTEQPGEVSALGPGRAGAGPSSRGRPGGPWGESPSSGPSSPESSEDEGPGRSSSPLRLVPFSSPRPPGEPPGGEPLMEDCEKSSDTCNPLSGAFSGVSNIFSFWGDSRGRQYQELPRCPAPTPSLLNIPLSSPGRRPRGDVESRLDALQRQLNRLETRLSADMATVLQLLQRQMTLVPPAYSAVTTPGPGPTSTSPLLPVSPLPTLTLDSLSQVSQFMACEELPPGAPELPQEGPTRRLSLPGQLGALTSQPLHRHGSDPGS
row,SMILES,"hERG current change (%, negative = inhibition) at 10uM"
1,Cc1c(NC(=O)CSc2nnnn2-c2ccc(F)cc2)c(=O)n(-c2ccccc2)n1C,-2.74%
2,Cc1ccc(S(=O)(=O)N(CC(=O)O)Cc2ccccc2F)cc1,3.18%
3,CCOC(=O)c1c(C)[nH]c(N=Nc2ccccc2)c1C,11.3%
4,C=C(C)n1c(=O)[nH]c2ccccc21,19.2%
5,Cc1nc2ccccc2c(=O)[nH]1,3.94%
6,O=C1NCCN/C1=C\C(=O)c1ccc(Cl)cc1,-1.74%
7,CC(=O)C(C)n1c(CN(C)Cc2ccccc2)nc2c1c(=O)n(C)c(=O)n2C (stereo not shown),-5.4%
8,O=C(COC(=O)c1c(F)cccc1F)NCCNC(=O)COC(=O)c1c(F)cccc1F,-10.9%
9,O=C(O)c1cccnc1SCc1cccc(Br)c1,17.6%
10,C=CCn1c(SCc2cc(=O)n3ccsc3n2)nnc1C1CCCCC1,-11.7%
11,Cc1cc(Nc2ncc(Cl)cc2Cl)n(-c2ccccc2)n1,-6.29%
12,CC1CN(C(=O)c2cccc(S(=O)(=O)N3CCN(c4ccc(F)cc4)CC3)c2)CC(C)O1 (stereo not shown),-45.4%
13,Cc1sc(NC(=O)c2oc3ccccc3c2C)c(C#N)c1C,0.66%
14,O=C(NNS(=O)(=O)c1ccc(C(=O)NC2CCCC2)cc1)c1ccncc1,19.1%
15,Cc1cc(C)c(C)c(S(=O)(=O)NNC(=O)c2cccc(S(=O)(=O)N3CCOCC3)c2)c1C,14.2%
16,CC(C)(C)NC(=O)CN(Cc1cccs1)C(=O)CNS(=O)(=O)c1ccc(F)cc1,3.35%
17,Cc1cccc(NC(=O)c2cccc3c2-c2ccccc2C3=O)n1,-26.6%
18,CN(Cc1ccccc1)C(=O)c1ccccc1NC(=O)C1=CSCCO1,0.439%
19,O=C1CC2(CCCCC2)Oc2ccc(F)cc21,-4.03%
20,CCCCOCCCNC(=O)Cc1ccccc1OC,12%
21,CCc1nc(SCC(=O)Nc2cc(C)on2)c2c(C)c(C)sc2n1,1.38%
22,C=CCNc1nc(Cl)nc(NC2CCCCC2)n1,12%

row,SMILES,"hERG current change (%, negative = inhibition) at 10uM"
1,O=c1[nH]c(=O)c2nnc(N/N=C\c3ccc(O)cc3)nc2[nH]1,18.9%
2,CN1CCCN(C(=O)c2cc3c(s2)CCCC3)CC1,-17.2%
3,Cn1cc(S(=O)(=O)NC2CCCCCC2)c(=O)n(C)c1=O,11.9%
4,COc1cccc(NS(=O)(=O)c2ccc3[nH]cc(C(=O)NCCN4CCOCC4)c(=O)c3c2)c1,8.37%
5,O=C(CCNS(=O)(=O)c1c(Cl)cccc1Cl)OCC(=O)c1ccccc1F,6.94%
6,COC(=O)C1=C(c2ccc(OC(F)(F)F)cc2)C[C@@H]2CC[C@H]1N2C(=O)NC(C)C,-18.3%
7,O=C1CS/C(=N/N=C/c2ccc(OS(=O)(=O)c3ccccc3)cc2)N1,14.7%
8,Cc1ccccc1-c1nc(CS(=O)CC(=O)NCc2ccc3c(c2)OCO3)c(C)o1 (stereo not shown),-27.8%
9,Cc1ccc(C(=O)N2CCN(c3cnn(C)c(=O)c3Cl)CC2)cc1,-31.1%
10,CN1C(=O)C(=Cc2ccc(Sc3ccccc3)o2)C(=O)N(C)C1=O,16.2%
11,COc1cccc(C2=NOC(C(=O)Nc3ccc4c(c3)OCO4)C2)c1 (stereo not shown),10.1%
12,O=C(Cn1ccc2ccccc2c1=O)NCC(=O)N1CCN(c2ccc(F)cc2)CC1,-4.91%
13,O=C(O)C1CCCCC1C(=O)Nc1ccc(Cl)cc1 (stereo not shown),0.877%
14,CCN(CC)S(=O)(=O)c1ccc(N2CCCCC2)c(NC(=O)C2=COCCO2)c1,-12.4%
15,COc1cc(C2C(C#N)=C(C)NC(C)=C2C#N)cc(OC)c1OC,16.8%
16,Cc1cccc(Cc2nnc(CCC(=O)N3CCCC(CN4CCOCC4)C3)o2)c1 (stereo not shown),12%
17,Cc1ccc(CCNS(=O)(=O)c2cc3c(cc2C)NC(=O)CO3)cc1,-28.8%
18,CCCCC(CC)CNC(=O)Cn1c(=O)[nH]c2ccsc2c1=O (stereo not shown),-8.15%
19,COc1ccc(S(=O)(=O)Nc2cc(C)ccc2OC)cc1C,-1.8%
20,O=C(Nc1ccc(N2CCN(Cc3ccccc3F)CC2)cc1)c1ccc([N+](=O)[O-])o1,6.55%
21,Cc1ccccc1C(=O)Nc1nc(=S)ss1,13.5%
22,c1ccc(C2Nc3ccccc3C3OCCCC23)cc1 (stereo not shown),6.43%

row,SMILES,"hERG current change (%, negative = inhibition) at 10uM"
1,Cc1ccc(N2C(=O)NC(=O)/C(=C\c3cn(CC(=O)O)c4ccccc34)C2=O)cc1,16.8%
2,COC(=O)c1c(NC(NC(=O)C(C)(C)C)C(Cl)(Cl)Cl)sc2c1CCC2 (stereo not shown),25.9%
3,CN1CCCC(OC(=O)c2cccc(Br)c2)C1.Cl (stereo not shown),-3.12%
4,COc1ccc(Nc2ncnc3ccc([N+](=O)[O-])cc23)c(OC)c1,-0.867%
5,COc1ccccc1-c1c(-c2ccc(OCC(=O)NN)cc2O)n[nH]c1C(F)(F)F,2.58%
6,O=S(=O)(c1ccc(Cl)cc1)N1CCN(C2CCN(Cc3ccccc3)CC2)CC1,-71.4%
7,COc1ccc2c(c1)CCc1cc(C(=O)N3CCN(c4ccc(N5CCOCC5)nn4)CC3)sc1-2,-17.2%
8,CC(=O)c1ccccc1OC(=O)CCN1C(=O)c2ccccc2C1=O,12.3%
9,CCNc1nc(NC(C)C)nc(Oc2ccc(/C=N/O)cc2)n1,4.97%
10,CC1Sc2ccc(S(=O)(=O)N(C)Cc3ccccc3)cc2NC1=O (stereo not shown),-9.27%
11,O=S(=O)(NCC1(N2CCOCC2)CCCCC1)c1ccc(F)c(F)c1F,-7.48%
12,CCOc1cc(C(c2c(C)[nH][nH]c2=O)c2c(C)[nH][nH]c2=O)ccc1OCc1ccc([N+](=O)[O-])cc1,1.68%
13,COc1ccc(/C=C(\NC(=O)c2ccccc2)C(=O)NCCN2CCOCC2)cc1OC,23%
14,COC(=O)c1cccc(C23CC4(C2)[C@H](CN(Cc2ccc(C(F)(F)F)cc2)[C@@H]4c2ccccc2)C3c2ccccc2)c1 (stereo partly shown),-13.5%
15,O=C1C(NS(=O)(=O)c2cccs2)=C(N2CCN(c3cccc(C(F)(F)F)c3)CC2)C(=O)c2ccccc21,-4.83%
16,O=[N+]([O-])/C=C1/CCCCCN1,19%
17,CCOC(=S)SCC(=O)N1CCc2cc(OC)c(OC)cc2C1C1C(=O)CC(C)(C)CC1=O (stereo not shown),1.02%
18,COc1ccc(N(CCC(=O)NCCc2ccccc2)S(=O)(=O)c2ccc(C)cc2C)cc1,-28.2%
19,c1ccc2cc(OCc3nc4ccccc4[nH]3)ccc2c1,-1.83%
20,CCOc1ccc(COC(=O)C2CC(=O)N(CCc3ccccc3)C2)cc1OC (stereo not shown),-21.6%
21,Cc1ccc(NC(=O)CN(C)C(=O)COC(=O)COc2ccc(C#N)cc2)cc1,-24.2%
22,Cc1cc(N2C(=O)NC(=O)CC2C)c(C)cc1C(C)C (stereo not shown),-0.172%

row,SMILES,"hERG current change (%, negative = inhibition) at 10uM"
1,CC(C)Cc1cc(CNC(=O)C2CCC(=O)N(Cc3cccc(C(F)(F)F)c3)C2)on1 (stereo not shown),3.35%
2,COc1ccc(/C(N)=N/OC(=O)Cc2ccc(C)cc2)cc1,9.68%
3,CC(C)(C)c1ccc(C(=O)N2CCN(C(=O)c3ccco3)CC2)cc1,0.705%
4,O=c1[nH]c2sc3c(c2c(=O)n1Cc1ccccc1)CCC3,-3%
5,COC(=O)c1cc2c(=O)c3ccccc3oc2nc1C,15%
6,O=C(O)c1ccccc1C(=O)N1CCN(c2cccc(Cl)c2)CC1,11.1%
7,CCN(CC)CCNC(=O)c1cc(Sc2nnc(C)s2)nc2ccccc12,-45.3%
8,COc1ccc(CCNC(=O)c2cc(=O)[nH]c3ccccc23)cc1,21.4%
9,Cc1cc(C(C)(C)C)cc(C)c1COC(=O)C1CCC(=O)N1 (stereo not shown),-7.15%
10,Clc1ccc(CSc2nnc(-c3ccncc3)s2)cc1,14.1%
11,CCCSc1nc2sc3c(c2c(=O)n1CC)CC(C)(C)OC3,3.41%
12,COC(=O)c1nnn(-c2nonc2N)c1CSc1nc2ccccc2o1,-4.78%
13,COc1ccc(C(=O)N(C)Cc2ccon2)cc1OC1CCN(C(C)C)CC1,7.6%
14,CCCN1C(=O)C(O)(c2c(C)[nH]c3ccccc23)c2ccccc21 (stereo not shown),4.55%
15,COc1cccc(C(=O)Nc2nc(-c3ccc4c(c3)OCO4)cs2)c1,6.23%
16,Cc1ccc(S(=O)(=O)/N=C(/Nc2c(C)n(C)n(-c3ccccc3)c2=O)c2ccc(Cl)cc2)cc1,-57%
17,O=C(CCN1C(=O)C2CC=C(Cl)CC2C1=O)N1CCCCC1 (stereo not shown),12.9%
18,O=C(O)c1sccc1Oc1ccc(NS(=O)(=O)c2ccc(Cl)cc2)cc1,15.6%
19,CCN(Cc1ccncc1)C(=O)c1ccco1,-73.5%
20,Cc1ccc(S(=O)(=O)c2cc3c(=O)n4ccccc4nc3n(CC3CCCO3)c2=N)cc1C (stereo not shown),-50.8%
21,CN1CCc2c(sc3c2C(=O)NC(/C=C/c2ccco2)N3)C1 (stereo not shown),-27.4%
22,CCc1cc(SC#N)cc(C)c1NC(=O)CCl,26.4%
